From ChEMBL document CHEMBL4888484, “Replenishing the malaria drug discovery pipeline: Screening and hit evaluation of the MMV Hit Generation Library 1 (HGL1) against asexual blood stage Plasmodium falciparum ,using a nano luciferase reporter read-out” (2022) come the findings set out here.

In all, about 150,000 compounds went through this assay and about 540 (0.36%) showed an effect of 50% or more. The list shows a part of the results.

The assay deals with Plasmodium falciparum. The assay can be described thus: Primary screen in NF54 nanoGlo assay, in single point, at 2uM, 72h; a lower Z score goes with more inhibition. It counts as functional, Erythrocyte. The conditions noted are these: timepoint 72 hour.
For orientation: % Inhibition means the drop in the measured response relative to a control, in per cent. Consider `COCCn1c(C)cnc1C[C@H]1CCN(C(=O)NCc2ccc(OC)cc2)C1`, for which the “% Inhibition” value is -16% and the Z score is recorded as 2.03.

Consider `Cc1cc(C(=O)N[C@@H](C)c2nnnn2C)nn1C(C)C`, for which the “% Inhibition” value is on record as -15% and the Z score is listed as 2.6.

In the case of `Cc1cc(C)cc(-n2ccn3cc(-c4ccc(Cl)cc4)nc3c2=O)c1`, the “% Inhibition” value was 2% and the Z score was -0.24.

Turning to `COc1ccccc1CNC(=O)[C@H]1CCCN(S(C)(=O)=O)CCC(=O)NCC1`, the “% Inhibition” value is on record as -15% and the Z score is 2.78.

For `COC[C@H]1CCCN(S(=O)(=O)NCc2nc3c(s2)CCCC3)C1`, the “% Inhibition” value turned out to be 0% and the Z score was found to be 0.01.

As to `COc1cccc(N2CCC(N3CCC4(CC3)CNC(=O)O4)CC2)c1`, the “% Inhibition” value is reported as -2% and the Z score is recorded as 0.35.

On to `CN(C[C@H]1COc2ccccc2O1)C(=O)c1cn2ccsc2n1`, for which the “% Inhibition” value is on record as -4% and the Z score is 0.59.

Regarding `CC[C@@H](Cc1ccccc1)N(CC)C(=O)c1cnns1`, the “% Inhibition” value is 11% and the Z score is -1.07.

`O=C(CCNCc1cc(Br)c2c(c1)OCO2)N1CCCC1`: the “% Inhibition” value was 16% and the Z score is on record as -1.88.

For `COc1ccc(-c2nn(-c3ccccc3)cc2CN2CC[C@H](N(C)C)C2)c(F)c1`, the “% Inhibition” value is given as -3% and the Z score is 0.52.

For the compound `O=C(c1n[nH]c2c1CCCC2)N1CC[C@@H](Nc2nc3c(F)cccc3o2)C1`, the “% Inhibition” value is recorded as -9% and the Z score is listed as 1.64.

On to `COCCN(CC(=O)N(Cc1ccccc1)Cc1ccc(C)o1)C(=O)C1CCCC1`, for which the “% Inhibition” value turned out to be 1% and the Z score was -0.16.

Turning to `CNS(=O)(=O)CC1CCCN1CC1CCC(C)O1` (stereo unspecified), the “% Inhibition” value was -5% and the Z score was found to be 0.75.

Turning to `COCC(=O)N1CC[C@@]2(CCCN(CCCc3ccccc3)C2)C1`, the “% Inhibition” value is reported as 7% and the Z score is -0.98.

In the case of `CCNC(=O)N1CCC(OC(C)=O)CC1`, the “% Inhibition” value is reported as -23% and the Z score came out at 3.52.

For `O=C([C@@H]1C[C@H](COc2cccnc2)CN(Cc2ccncc2)C1)N1CCCC1`, the “% Inhibition” value was -10% and the Z score worked out at 1.97.

As to `CS(=O)(=O)N1CCC(C(=O)N2CCc3sccc3C2)CC1`, the “% Inhibition” value is listed as -9% and the Z score was 1.09.

As for `Cc1cn2ccc(NC(=O)NCC[C@H]3CC(=O)N(C)C3)cc2n1`, the “% Inhibition” value is -12% and the Z score was found to be 2.29.

With `C[C@@H]1CN(C2CCC(=O)N(Cc3ccccc3Cl)CC2)C[C@H](C)O1` (stereo partly specified), the “% Inhibition” value is recorded as -11% and the Z score was 1.2.

Take `Cc1cc(NC(=O)CCN[C@@H](C)c2cc3ccccc3o2)no1`: the “% Inhibition” value is on record as -10% and the Z score worked out at 1.4.

For `CC(C)n1ccnc1-c1ccc(C(=O)N(C)Cc2ccon2)cc1`, the “% Inhibition” value was -3% and the Z score is given as 0.53.

For the compound `Cc1cccc(-c2ncc(CN3CCC4(CC3)N=C(N(C)C)NC4=O)cn2)c1`, the “% Inhibition” value is on record as -7% and the Z score amounted to 1.45.

With `COc1ccc([C@H]2N(/C(CN3CCCC3)=N\S(=O)(=O)c3ccc(C)cc3)CCCN2S(=O)(=O)c2ccc(C)cc2)cc1`, the “% Inhibition” value is 28% and the Z score is -3.14.

Turning to `O=C(CC1CCOCC1)Nc1cc(C2CCCCC2)[nH]n1`, the “% Inhibition” value was -1% and the Z score is 0.13.

For the compound `COc1cc(CN(C)Cc2ccc(C)o2)ccc1OC[C@@H](O)CN(C)C1CCCCC1`, the “% Inhibition” value is reported as -2% and the Z score turned out to be 0.32.

For `Nc1ccnc(N[C@H]2CCOC[C@@H]2Oc2cccc(F)c2)n1`, the “% Inhibition” value is on record as -11% and the Z score was determined as 2.16.

With `CN1CCc2nc(C=Cc3cccc(OCc4cccc(C#N)c4)c3)[nH]c(=O)c2C1`, the “% Inhibition” value was 1% and the Z score is -0.08.

In the case of `CCCN1CC[C@H](Nc2ccc(C(C)C)nn2)C1`, the “% Inhibition” value is on record as -2% and the Z score came out at 0.44.

As to `CC(C)(C)OC(=O)N1CC(n2cc(-c3ccccn3)nn2)C1`, the “% Inhibition” value is -4% and the Z score came to 0.51.

Take `O=C(CS(=O)(=O)Cc1ccc(F)cc1Cl)NCC1CC1`: the “% Inhibition” value was -9% and the Z score came to 1.18.

With `CC(=O)N1CCN(C(=O)[C@H](C)n2c(Cc3ccccc3Cl)nc3cc(Cl)c(Cl)cc32)CC1`, the “% Inhibition” value is -10% and the Z score is 1.31.

In the case of `COCc1nc(CO[C@H]2CCCN(C(=O)CCc3ccccc3)C2)no1`, the “% Inhibition” value is listed as -19% and the Z score worked out at 2.69.

As for `CO[C@@](C)(CNC(=O)NC1CCCC1)c1cccc(Cl)c1`, the “% Inhibition” value is 11% and the Z score is -1.35.

On to `c1nc(N2CCOCC2)cc(N2CCC(OC3CCC3)CC2)n1`, for which the “% Inhibition” value is given as -13% and the Z score came to 2.2.

With `CCN1CCN(C[C@@H]2CN(Cc3nc(-c4ccccc4)no3)C[C@@H]2CO)CC1`, the “% Inhibition” value is given as -14% and the Z score came out at 1.84.

Regarding `O=C(CN1CCC(c2ncco2)CC1)NC[C@H]1CCCO1`, the “% Inhibition” value is 4% and the Z score is reported as -0.42.

As to `N[C@H]1C[C@H](c2cc(N3CCC(Oc4cccc(Cl)c4)CC3)ncn2)C1`, the “% Inhibition” value is given as -6% and the Z score is recorded as 1.19.

For the compound `COc1ccc([C@@H]2NC(=O)CN(C)C2=O)cc1`, the “% Inhibition” value is recorded as 13% and the Z score is given as -1.62.

In the case of `CCCn1c(N)c(C(=O)CN(Cc2ccccc2)c2ccc(OC)cc2)c(=O)n(C)c1=O`, the “% Inhibition” value was -7% and the Z score was 0.95.

`COc1cccc(-c2ccc(N3CCCN(C(=O)CN(Cc4ccc(F)cc4)C(=O)CC(C)C)CC3)nn2)c1`: the “% Inhibition” value is -14% and the Z score turned out to be 1.76.

As for `O=C(Nc1cccc(NC(=O)C(F)(F)F)n1)C(F)(F)F`, the “% Inhibition” value is -9% and the Z score came to 1.65.

Consider `Cc1cc(NC(=O)Cn2cc(-c3ccnc(N)n3)cn2)n(Cc2ccccc2)n1`, for which the “% Inhibition” value is reported as -9% and the Z score is listed as 1.57.

`Cc1ccc2nc(-c3nc(C)cs3)[nH]c(=O)c2c1`: the “% Inhibition” value is -20% and the Z score was 2.83.

In the case of `Cc1cc(=O)n(CC(=O)Nc2ccc(C)c(C)c2)c(N2CCCCC2)n1`, the “% Inhibition” value was -20% and the Z score came to 2.09.

With `Cc1nc([C@@H]2C=CCN2)n(-c2ccc(Cl)cc2C)n1`, the “% Inhibition” value was determined as 0% and the Z score is given as -0.06.

On to `CC(C)CNC(=O)[C@@H]1CCCCN1C(=O)c1cc2n(n1)CCCN(Cc1ccccc1)C2=O`, for which the “% Inhibition” value was -1% and the Z score turned out to be 0.25.

As to `C[C@@H](CNCCn1cnnc1C1CC1)c1ccccc1`, the “% Inhibition” value is on record as -11% and the Z score came to 1.39.

Consider `CC(=O)N1CCc2cc(NS(=O)(=O)c3c(C)cc(C)cc3C)ccc21`, for which the “% Inhibition” value is 6% and the Z score was -1.22.

In the case of `Cc1cc2c(cc1Cl)C1CC(C)(O2)N(CCCO)C(=O)N1` (stereo unspecified), the “% Inhibition” value is listed as -3% and the Z score came to 0.47.

As to `CN1CCN(CCNC(=O)c2ncccc2F)CC1(C)C`, the “% Inhibition” value is recorded as -9% and the Z score is listed as 1.53.

Turning to `O=C(O)C[C@]1(c2ccccc2)CC(=O)N(CC2CCCCC2)C1=O`, the “% Inhibition” value is listed as 0% and the Z score is on record as 0.07.

In the case of `COc1ccc(O[C@@H](C)CNC(=O)c2ccncc2)cc1`, the “% Inhibition” value was determined as 0% and the Z score is 0.01.

In the case of `C=CCn1cc(CN[C@@H](CCn2ccnc2C)c2ccccc2)c(C)n1`, the “% Inhibition” value is given as -3% and the Z score is reported as 0.61.
